Experimental data published in US6824998B2, “Compounds and methods for detecting tripeptidyl protease I” (University of Iowa Research Foundation, priority 2003, dated 2004).
At least one compound was matched to its structure with a doubt left.

Target: T1, TPP-1 (Mus musculus, UniProt O89023)
T1 construct: from tissue; host or cells: frozen 10 µm sections of paraformaldehyde-fixed tissues (e.g. kidney) from C57BL/6J mice (Jackson Laboratory)
T1 sequence (O89023 195-562): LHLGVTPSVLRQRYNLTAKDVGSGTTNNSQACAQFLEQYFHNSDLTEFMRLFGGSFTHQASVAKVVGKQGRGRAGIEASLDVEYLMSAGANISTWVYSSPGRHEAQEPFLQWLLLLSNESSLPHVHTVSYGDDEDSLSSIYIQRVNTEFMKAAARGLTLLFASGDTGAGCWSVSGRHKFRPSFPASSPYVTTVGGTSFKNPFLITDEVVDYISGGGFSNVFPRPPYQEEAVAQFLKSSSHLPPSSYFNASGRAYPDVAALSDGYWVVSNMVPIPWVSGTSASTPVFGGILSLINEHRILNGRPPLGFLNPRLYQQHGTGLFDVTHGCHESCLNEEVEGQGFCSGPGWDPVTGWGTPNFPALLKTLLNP
Experiment: TPP-1 histochemical staining of frozen sections of murine tissues
Assay type: biochemical
Conditions: 1 mM compound, 0.1 M acetate buffer pH 4.5, 37° C., 4 hours
Experimental: C57BL/6J mice (6 to 8 weeks old) were purchased from the Jackson Laboratory (Bar Harbor, Me.). The mice were sacrificed with an overdose of anesthetic and then transcardially perfused with 0.9% (w/v) saline solution, followed by 2% paraformaldehyde in 0.2 M phosphate buffer. The tissues were removed and post-fixed for 2 hours. After fixation, the tissues were cryoprotected by immersion in 25% sucrose and frozen in OCT compound (Sakura Finetek U.S.A., Inc, Torrance, Calif.). Sections (10 μm) were cut with a cryostat and mounted onto gelatin-coated slides.
Sections were embedded in 0.5% celloidin, followed by incubation in substrate solutions. The sections were incubated in substrate solutions containing 1 mM of the compound, 1 mg/mL of benzaldehyde (BA) or p-anisaldehyde (p-AA) or p-nitrobenzaldehyde (p-NBA) in 0.1 M acetate buffer (pH 4.5) at 37° C. for 4 hours. Slides were rinsed and cover-slipped before viewing on a Leica DM RBE microscope equipped with a Spot-RT Digital Camera and associated software. For all experiments, tissue staining was repeated on a minimum of 5 sections/animal per compound. A minimum of three individual animals was tested to confirm consistency of the results.
Five different compounds, compounds 10, 16, 20, 27, and 31, were tested histochemically on frozen sections of murine tissues. The substrates were systematically compared for sensitivity to TPP-1 activity using conditions to control the rate of crystalline formation and diffusion of product.

Row | SMILES | Intensity of the final reaction product of TPP-1 histochemical staining (Benzaldehyde 1 mg/mL) | Intensity of the final reaction product of TPP-1 histochemical staining (p-Anisaldehyde 1 mg/mL) | Intensity of the final reaction product of TPP-1 histochemical staining (p-Nitrobenzaldehyde 1 mg/mL)
1 | C[C@H](N)C(=O)N[C@@H](C)C(=O)N[C@H](Cc1ccccc1)C(=O)NNc1cccc2c1C(=O)c1ccccc1C2=O [Compound 31, L-Ala-L-Ala-D-Phe-1-anthraquinonylhydrazide] | − | − | −
2 | C[C@H](NC(=O)[C@@H]1CCCN1C(=O)CN)C(=O)n1nc2c3c(c(Cl)ccc31)C(=O)c1ccccc1-2 [Compound 10, Gly-L-Pro-L-Ala-5-chloro-1-anthra[1,9-cd]pyrozol-6(2H)-one] | ++ | +++ | +++
3 | C[C@H](NC(=O)[C@@H]1CCCN1C(=O)CN)C(=O)NNc1cccc2c1C(=O)c1ccccc1C2=O [Compound 16, Gly-L-Pro-L-Ala-1-anthraquinonylhydrazide] | − | − | −
4 | C[C@H](N)C(=O)N[C@@H](C)C(=O)N[C@@H](Cc1ccccc1)C(=O)NNc1cccc2c1C(=O)c1ccccc1C2=O [Compound 27, L-Ala-L-Ala-L-Phe-1-anthraquinonylhydrazide] | ++ | +++ | +++
5 | NCC(=O)N1CCC[C@H]1C(=O)N[C@@H](CO)C(=O)NNc1cccc2c1C(=O)c1ccccc1C2=O [Compound 20, Gly-L-Pro-L-Ser-1-anthraquinonylhydrazide] | + | +++ | +++
